Assay results published in the supplement of paper PMC10126150.
Values marked as one replicate rest on one cluster of the flow cell; about a third of the high ones do not repeat.

System: ATP
Assay: switch fluorescence ratio, 500 uM ATP over buffer (Cy3 cluster intensity, sum of 5 cycles each) (fold (ratio)); higher = stronger signal-on switching upon ATP binding; sequences stand for … in TCGTCGGCAGCGTCAGATGTGTATAAGAGACAGTTTTTTTTTTTTTTTTTTTTTTTTT…TC
Details: aptamer strand: ATP DNA aptamer (quencher-CACCTGGGGGAGTATTGCGGAGGAAGG + anchor), 100 nM annealed; ATP concentration: 500 uM; one replicate
In short: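 Imaging in selection buffer was followed by imaging after 15 min with 500 uM ATP at 22 °C, for Cy3-labelled switching-strand clusters annealed to 100 nM quencher-labelled ATP aptamer on a modified Illumina MiSeq flow-cell. Five of these buffer/ATP cycles ran, separated by NaOH stripping and re-annealing. The fluorescence ratio per cluster is summed target-cycle over summed buffer-cycle Cy3 intensity, averaged per switch-domain sequence; clusters outside 100-1000 RFU were removed.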
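Note: ATP exposure 15 min at 22 °C before imaging.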

Sequence | switch fluorescence ratio
TGCATTCGGA | 0.997
CAGGGGTGG | 0.99
ACGCTACCGC | 1.36
TAGCGCGCAA | 1.21
GTAGGGAAGA | 0.949
AGCATTAGTG | 1
TTCGCAT | 1.09
GAATGTAAGT | 0.996
GAGGGACAGC | 1.04
AAACATCAG | 0.986
GACTGGGCTT | 0.99
ACTAGAGCCC | 0.983
GATGTCACT | 0.981
AGAGATTCTG | 1.01
TGGAGTGTCT | 0.971
CACATATTCT | 0.966
CGTCGGGATG | 0.99
CGTCATATCG | 0.983
GACGGAAAGG | 1.05
CTTATTTGCA | 1.04
CAGGCCAAGA | 1.12
CGGGGGACCA | 0.97
TGTGCATTTT | 1.03
CAACCGGATG | 1.01
CGGCCGAAGG | 1.05
TAGATTTGCG | 0.982

Sequence | switch fluorescence ratio
CGGTAAAACC | 1.04
AGTGTTAACA | 1.01
ACGACATTTG | 0.992
CATTGCTCAG | 1.02
AAGCTGGGTA | 0.984
ATGCTCGCGA | 1.05
GCTTATGGGT | 1.02
TATTACAATT | 1.06
ACTGTCAGAG | 1.01
AACTCAGTTC | 0.999
ACGTTTGAAC | 1.05
CACCAATCTG | 1.06
GATCTTGCGA | 1.16
CCATGAACCT | 2.05
GATGGTCTCC | 1.02
GGCAGGATCA | 0.999
GTCGAAAAAA | 1.04
ATCTATTGCA | 1.03
TGTACTAAAG | 1.07
GGCCTTCTCG | 1.34
GGTAGGAAAT | 0.989
ATCGGGCAGA | 0.999
CATTCGCCAA | 5.21
AGGTTTAACT | 0.988
CACTTAGATT | 1.06
GGGTCCCGCT | 0.966

Sequence | switch fluorescence ratio
GACAAGGGTT | 1.01
ATGGGTCATC | 0.997
CACGGAGACG | 0.989
CCGAATATGT | 1.02
GTCGGTCGTG | 1
AGGCGTACA | 0.98
TAATGTTGCG | 1
TAACCGTTGA | 1.02
GTACGATGGA | 1.01
GCCGACTTTG | 0.986
TTCGTACTGC | 1.03
ATGAGATCGG | 0.996
CAATTGCGGA | 1.09
CACGCAAGTT | 1.22
TTCGACGGGT | 1.03
TATTTAGACG | 1.08
GTGATTATGA | 0.992
GCTATTCTCG | 1.2
GGACGTCCTT | 1.01
CTGAGTTAGG | 0.973
GACGGGAGCG | 1.01
GGTGGCGAAA | 1.02
GTTATTTCTC | 1
ACTTTGATCA | 0.999
GTCTCCATGT | 0.958
TTGTGAAGAG | 0.973

Sequence | switch fluorescence ratio
AAAGCACTTA | 1.06
GATAGCGCCA | 0.998
ACAATTGCTC | 1.1
AGATTAGAGA | 1.02
TGGCGTTATC | 0.968
CTTTATTCCA | 0.993
TCCAAGCGAG | 1.25
TGTTCGATCT | 1.02
AGAGGAGGTA | 0.986
GCTTGAGTAT | 0.987
TCTAACGCTT | 1.28
CAAGTAAGGT | 1.03
TTGCCCCTGT | 0.998
ATGTGTATCT | 0.998
AATGTTGGGT | 0.982
TGGACTCGTG | 0.97
GTAGCTGCTC | 1.51
GGTCGCGTCG | 0.98
AGCACATCGA | 1.15
GTAGCTTGTA | 1.05
TGCCAAGTAA | 1.03
CGACTTAGC | 0.981
CAAAGTTCAC | 1.04
TACTAAATAG | 1.03
ACAGAATGTT | 0.989
CATGAGTTCA | 0.97

Sequence | switch fluorescence ratio
GGCGCCCCGT | 1.02
TATGTCTGTG | 1.02
GCTTGCCTCA | 1.38
TGGTTGCCCG | 0.941
GTTATTGGTC | 1.01
TGAATTCCGG | 0.996
TAAAGTCGGG | 1.01
GGCAACGGGA | 0.982
GCTACTTACT | 1.24
TTAAAGCATC | 2.24
ACAGGCTGT | 1.01
GAGAGACGGA | 1.1
CCATTTGGGC | 0.906
GTTAGTCCTC | 1.03
CATGTGAGGT | 0.992
GCTGTGGTTT | 1.04
TTATCTTCCG | 1.2
CAAGTCTTAG | 0.994
TATCGGTTGC | 0.98
TCGCTCATTG | 0.984
AGGCCACTGC | 0.967
ATATGTAGGG | 0.985
CCATGTTGAC | 0.977
TTGCGGAATG | 0.98
GGCTCTTCAT | 0.983
GCAGCCCAAT | 1.22

Sequence | switch fluorescence ratio
TAATGGTGAT | 1.01
TTGCGATAAC | 2.08
TCGACCGCCG | 1.03
GGGTGGTGTC | 1.08
TGCACTTCCC | 1.33
CATCTACAGT | 1.03
TGAGAATGGT | 0.932
CGCTAATGAG | 1.11
TGTGACGTGT | 1.02
GGAAGAGG | 1.02
TAACATTGT | 1.02
GAAAAGATAG | 0.991
GCGATGTTTT | 0.936
ACCCGAAATT | 1.02
AGAACGATGT | 1.32
AACTTGTGTC | 0.99
ACCGTGCAAC | 1.1
AACAGTGGGA | 0.962
GTGGGGATG | 1.02
AGAGGGCTTA | 0.939
GTGGCTGCAA | 1.15
GAGAAGGTAG | 0.948
CCCCGATCGT | 1.01
GCGTCCTGGC | 1
TCGGTACGAA | 1
AACAGAAGC | 1.04

Sequence | switch fluorescence ratio
AGCCCGACAT | 0.987
CGTAGTCCTC | 1.03
CTTTGGGGC | 0.995
GTTATTGATT | 1.06
ACATATACAA | 1.1
AATTCAGTTG | 1.01
CACAAAGATA | 0.982
AATATAAGAA | 0.988
AATCTCGTAC | 1.03
TTGCTCTCAA | 1.02
GCATTCACTT | 1.01
TTCTCATAAG | 0.988
CGAAAAGTGT | 0.935
TGGTCCTCCT | 0.941
TCGTTTTATC | 1.03
GCTGTCTACG | 0.995
ACGATGATTT | 0.948
CGGCTGTAGC | 0.981
ACTGGGAAC | 1.03
TAGCTGGGCC | 1.01
ATTGGTTAAG | 1.02
AACCAGACGA | 1.73
TAGCGGACAC | 1.01
CCACGGTACG | 1.01
GCTGATGGA | 1
AATTGGAGAA | 1.04

Sequence | switch fluorescence ratio
GTCCGAATGT | 1.01
GAAAGTTTTC | 0.969
AAAGACTTAA | 0.995
ACTATCCCTA | 0.987
TTTCAGTCTG | 0.988
GCTTCCATTG | 1.03
TGCCGGCGAC | 0.995
GGGCGTAGAA | 1.01
CGCACTTAA | 3.17
ATAATGCTTG | 0.997
TCGTGCGTGG | 0.959
CTAGGGAGGA | 1.03
AAGGCTAT | 1
AATATTTACT | 1.16
GAGATGCGGT | 0.951
GGTGTGGTG | 0.981
GAGTGCCA | 0.999
AACTAGTTAA | 1.01
GGGCCTAGGC | 0.963
